Target: the molecule itself
Assay: native gel or EMSA; BN-PAGE (8% bis-tris gel, pH 7.0, on ice) of whole-cell lysates of transfected HEK293 cells in 1% Triton X-100 BN lysis buffer, then immunoblot (anti-AQP4 or anti-GFP) and densitometry; self-association: tetramer, dimer, monomer bands

B1: AQP4 TM5 compound mutant (I189A/I199A/F203A), C-terminal GFP fusion (natural protein, human)
chain: MSDRPTARRWGKCGPLCTRENIMVAFKGVWTQAFWKAVTAEFLAMLIFVLLSLGSTINWGGTEKPLPVDMVLISLCFGLSIATMVQCFGHISGGHINPAVTVAMVCTRKISIAKSVFYIAAQCLGAIIGAGILYLVTPPSVVGGLGVTMVHGNLTAGHGLLVELIITFQLVFTIFASCDSKRTDVTGSAALAIGFSVAAGHLAAINYTGASMNPARSFGPAVIMGNWENHWIYWVGPIIGAVLAGGLYEYVFCPDV[… about 60 residues …]
notes: aquaporin-4 (AQP4), human cDNA in pDEST47; M1 isoform (323 residues); source: HEK293, transiently transfected, in Triton X-100 lysate; not shown: GFP, C-terminal, kept
- stoichiometry N: 4

Source: PMC4807272, “Structural Determinants of Oligomerization of the Aquaporin-4 Channel*” (The Journal of Biological Chemistry, 2016)
